Patent publication US20200040086A1 (BERLIN CHEMIE, published 2020)
No constants are given. Whether binding was seen depends on the method and setting. For part of these data: Binding seen in cells or lysates may run through a third protein. Some binding calls cover weakened binding; strength is not graded here.

Columns and labels:
SRLTYSSR = molecular target: T1, SRLTYSSR; assay: peptide microarray of 8mer LY75 peptides, LY75_A1 at 1 µg/mL, anti-human IgG Alexa 647
T1 sequence (peptide): SRLTYSSR

[1] = molecular target: T2, LY75 tryptic peptide … (896-910) (human); assay: peptide pull down on LY75_A1 protein A beads, LC-MS/MS
T2 sequence (peptide): FPVTFGEECLYMSAK

[2] = molecular target: T3, LY75 tryptic peptide … (877 to 890) (human); assay: as above
T3 sequence (peptide): ISEWPIDDHFTYSR

[3] = molecular target: T4, LY75 tryptic peptide … (1099-1109) (human); assay: as above
T4 sequence (peptide): QTLQNASETVK

[4] = molecular target: T5, LY75 tryptic peptide … (1030-1044) (human); assay: as above
T5 sequence (peptide): ELTYSNFHPLLVSGR

LVSGRLRI = molecular target: T6, LVSGRLRI; assay: peptide microarray of 8mer LY75 peptides
T6 sequence (peptide): LVSGRLRI

RLTYSSRC = molecular target: T7, RLTYSSRC; assay: peptide microarray of 8mer LY75 peptides
T7 sequence (peptide): RLTYSSRC

NFHPLLVS = molecular target: T8, NFHPLLVS; assay: peptide microarray of 8mer LY75 peptides
T8 sequence (peptide): NFHPLLVS

PLLVSGRL = molecular target: T9, PLLVSGRL; assay: peptide microarray of 8mer LY75 peptides
T9 sequence (peptide): PLLVSGRL

KDCRSFKA = molecular target: T10, KDCRSFKA; assay: peptide microarray of 8mer LY75 peptides
T10 sequence (peptide): KDCRSFKA

LLVSGRLR = molecular target: T11, LLVSGRLR; assay: peptide microarray of 8mer LY75 peptides
T11 sequence (peptide): LLVSGRLR

IQYKGHCY = molecular target: T12, IQYKGHCY; assay: peptide microarray of 8mer LY75 peptides
T12 sequence (peptide): IQYKGHCY

WEVKDCRS = molecular target: T13, WEVKDCRS; assay: peptide microarray of 8mer LY75 peptides
T13 sequence (peptide): WEVKDCRS

GHCYKSDQ = molecular target: T14, GHCYKSDQ; assay: peptide microarray of 8mer LY75 peptides
T14 sequence (peptide): GHCYKSDQ

CYKSDQAL = molecular target: T15, CYKSDQAL; assay: peptide microarray of 8mer LY75 peptides
T15 sequence (peptide): CYKSDQAL

HFYDDREF = molecular target: T16, HFYDDREF; assay: peptide microarray of 8mer LY75 peptides
T16 sequence (peptide): HFYDDREF

DQALHSFS = molecular target: T17, DQALHSFS; assay: peptide microarray of 8mer LY75 peptides
T17 sequence (peptide): DQALHSFS

KSDQALHS = molecular target: T18, KSDQALHS; assay: peptide microarray of 8mer LY75 peptides
T18 sequence (peptide): KSDQALHS

DCRSFKAL = molecular target: T19, DCRSFKAL; assay: peptide microarray of 8mer LY75 peptides
T19 sequence (peptide): DCRSFKAL

FTYSRYPW = molecular target: T20, FTYSRYPW; assay: peptide microarray of 8mer LY75 peptides
T20 sequence (peptide): FTYSRYPW

DCAAVKVF = molecular target: T21, DCAAVKVF; assay: peptide microarray of 8mer LY75 peptides
T21 sequence (peptide): DCAAVKVF

KVFHAERI = molecular target: T22, KVFHAERI; assay: peptide microarray of 8mer LY75 peptides
T22 sequence (peptide): KVFHAERI

HCYKSDQA = molecular target: T23, HCYKSDQA; assay: peptide microarray of 8mer LY75 peptides
T23 sequence (peptide): HCYKSDQA

FHPLLVSG = molecular target: T24, FHPLLVSG; assay: peptide microarray of 8mer LY75 peptides
T24 sequence (peptide): FHPLLVSG

ERHFVSLC = molecular target: T25, ERHFVSLC; assay: peptide microarray of 8mer LY75 peptides
T25 sequence (peptide): ERHFVSLC

YKVFHAER = molecular target: T26, YKVFHAER; assay: peptide microarray of 8mer LY75 peptides
T26 sequence (peptide): YKVFHAER

HPLLVSGR = molecular target: T27, HPLLVSGR; assay: peptide microarray of 8mer LY75 peptides
T27 sequence (peptide): HPLLVSGR

VKVFHRPW = molecular target: T28, VKVFHRPW; assay: peptide microarray of 8mer LY75 peptides
T28 sequence (peptide): VKVFHRPW

CRSFKALS = molecular target: T29, CRSFKALS; assay: peptide microarray of 8mer LY75 peptides
T29 sequence (peptide): CRSFKALS

HRPWRRGW = molecular target: T30, HRPWRRGW; assay: peptide microarray of 8mer LY75 peptides
T30 sequence (peptide): HRPWRRGW

AAVKVFHR = molecular target: T31, AAVKVFHR; assay: peptide microarray of 8mer LY75 peptides
T31 sequence (peptide): AAVKVFHR

PASLSCYK = molecular target: T32, PASLSCYK; assay: peptide microarray of 8mer LY75 peptides
T32 sequence (peptide): PASLSCYK

CYKVFHAE = molecular target: T33, CYKVFHAE; assay: peptide microarray of 8mer LY75 peptides
T33 sequence (peptide): CYKVFHAE

VSGRLRIP = molecular target: T34, VSGRLRIP; assay: peptide microarray of 8mer LY75 peptides
T34 sequence (peptide): VSGRLRIP

CSERHFVS = molecular target: T35, CSERHFVS; assay: peptide microarray of 8mer LY75 peptides
T35 sequence (peptide): CSERHFVS

FHQHSILA = molecular target: T36, FHQHSILA; assay: peptide microarray of 8mer LY75 peptides
T36 sequence (peptide): FHQHSILA

FHAERIVR = molecular target: T37, FHAERIVR; assay: peptide microarray of 8mer LY75 peptides
T37 sequence (peptide): FHAERIVR

VFHAERIV = molecular target: T38, VFHAERIV; assay: peptide microarray of 8mer LY75 peptides
T38 sequence (peptide): VFHAERIV

VKDCRSFK = molecular target: T39, VKDCRSFK; assay: peptide microarray of 8mer LY75 peptides
T39 sequence (peptide): VKDCRSFK

SNFHPLLV = molecular target: T40, SNFHPLLV; assay: peptide microarray of 8mer LY75 peptides
T40 sequence (peptide): SNFHPLLV

VFHRPWRR = molecular target: T41, VFHRPWRR; assay: peptide microarray of 8mer LY75 peptides
T41 sequence (peptide): VFHRPWRR

TVKYLNNL = molecular target: T42, TVKYLNNL; assay: peptide microarray of 8mer LY75 peptides
T42 sequence (peptide): TVKYLNNL

B1: LY75_A1 (antibody, V domains shown)
VH: EVQLVESGGGLVKPGGSLRLSCAASGFTYSNAWMSWVRQAPGKGLEWVGRIKSKTDGGTTDYAAPVQGRFTISRDDSKNTLYLQMNSLKTEDTAVYYCTIFGVVSFDYWGQGTLVTVSS
VL: DVQMTQSPSSLSASVGDRVTITCRASQSISDYLSWYQQRPGKAPNLLIYAASNLKTGVPSRFSGSGSGTDFTLTISTLQPEDFATYYCQQSYRSPWTFGQGTKVEIKR
notes: detected with anti-human IgG in the microarray; also called antibody LY75_A1; LY75_A1 monoclonal antibody
binding (SRLTYSSR): binds
binding [1]: binds
binding [2]: binds
binding [3]: binds
binding [4]: binds
binding (LVSGRLRI): no binding (tested: 1 µg/mL)
binding (RLTYSSRC): no binding (tested: 1 µg/mL)
binding (NFHPLLVS): no binding (tested: 1 µg/mL)
binding (PLLVSGRL): no binding (tested: 1 µg/mL)
binding (KDCRSFKA): no binding (tested: 1 µg/mL)
binding (LLVSGRLR): no binding (tested: 1 µg/mL)
binding (IQYKGHCY): no binding (tested: 1 µg/mL)
binding (WEVKDCRS): no binding (tested: 1 µg/mL)
binding (GHCYKSDQ): no binding (tested: 1 µg/mL)
binding (CYKSDQAL): no binding (tested: 1 µg/mL)
binding (HFYDDREF): no binding (tested: 1 µg/mL)
binding (DQALHSFS): no binding (tested: 1 µg/mL)
binding (KSDQALHS): no binding (tested: 1 µg/mL)
binding (DCRSFKAL): no binding (tested: 1 µg/mL)
binding (FTYSRYPW): no binding (tested: 1 µg/mL)
binding (DCAAVKVF): no binding (tested: 1 µg/mL)
binding (KVFHAERI): no binding (tested: 1 µg/mL)
binding (HCYKSDQA): no binding (tested: 1 µg/mL)
binding (FHPLLVSG): no binding (tested: 1 µg/mL)
binding (ERHFVSLC): no binding (tested: 1 µg/mL)
binding (YKVFHAER): no binding (tested: 1 µg/mL)
binding (HPLLVSGR): no binding (tested: 1 µg/mL)
binding (VKVFHRPW): no binding (tested: 1 µg/mL)
binding (CRSFKALS): no binding (tested: 1 µg/mL)
binding (HRPWRRGW): no binding (tested: 1 µg/mL)
binding (AAVKVFHR): no binding (tested: 1 µg/mL)
binding (PASLSCYK): no binding (tested: 1 µg/mL)
binding (CYKVFHAE): no binding (tested: 1 µg/mL)
binding (VSGRLRIP): no binding (tested: 1 µg/mL)
binding (CSERHFVS): no binding (tested: 1 µg/mL)
binding (FHQHSILA): no binding (tested: 1 µg/mL)
binding (FHAERIVR): no binding (tested: 1 µg/mL)
binding (VFHAERIV): no binding (tested: 1 µg/mL)
binding (VKDCRSFK): no binding (tested: 1 µg/mL)
binding (SNFHPLLV): no binding (tested: 1 µg/mL)
binding (VFHRPWRR): no binding (tested: 1 µg/mL)
binding (TVKYLNNL): no binding (tested: 1 µg/mL)
